# Source: PubChem BioAssay AID651661 (Broad Institute, 2012)
# Screen size: about 350,000 compounds; about 2,300 (0.66%) were called active. The shares of active, inactive and inconclusive entries below differ from those in the screen.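 The calls were made as follows: active = mean inhibition of at least 50% after viability correction, with every replicate also passing that limit; inconclusive = mean reaches 50% but only one of two replicates passes; inactive = the rest.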
# Assay: blockers of EWS/Fli transcriptional output – A673 cells, NR0B1 luciferase, luminescence, MLPCN library, primary screen (AID 651661);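 also: firefly luciferase signal divided by Alamar Blue viability fluorescence both relative to DMSO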
# Settings: A673 NR0B1-luciferase reporter, viability-normalised; at 12.6 µM; hits give high values
row,SMILES,inhibition
1,O=C(Nc1cccc2ncccc12)c1ccccc1Cl,inconclusive: 54.6%
2,CO[C@H]1CN(C)C(=O)c2cc(NS(=O)(=O)c3c(C)noc3C)ccc2OC[C@H](C)NC[C@@H]1C,inactive: 1.41%
3,COc1ccc2c(c1)C(=C(C#N)C#N)C(=O)N2CCc1ccccc1,inconclusive: 50.2%
4,Cc1cc(NC(=O)CSc2nc(-c3cccs3)nc3ccccc23)no1,active: 57.6%
5,COc1cccc(NC(=O)Nc2nc(-c3ccc(OC)c(OC)c3)cs2)c1,active: 64.6%
6,Cc1ccc(S(=O)(=O)N2CCCCC2CCNC(=O)C(=O)NCCc2ccco2)cc1 (stereo not drawn),inconclusive: 50.6%
7,COc1cc(OC)c2c(-c3cccc(-c4ccc(N(C)C)cc4)c3)cc(=O)oc2c1,inconclusive: 51.6%
8,COC(=O)[C@H]1[C@H](CO)[C@H]2Cn3c(ccc(-c4ccc(F)cc4)c3=O)[C@H]2N1Cc1ccccn1,inactive: -3%
9,CCCN1[C@@H]2c3ccc(-c4ccncc4)c(=O)n3C[C@H]1[C@H](CO)[C@H]2C(=O)N1CCCCC1,inactive: 2.94%
10,COc1cc(C2c3cc4c(cc3OC(NCc3ccccc3)C2C)OCO4)cc(OC)c1OC (stereo not drawn),inconclusive: 50.1%
11,CCN1CCN(c2cc3nc(C)n(Cc4ccccc4)c(=O)c3cc2NC(=O)c2ccccc2F)CC1,inconclusive: 50.1%
12,O=C(C#Cc1ccccc1)c1ccco1,active: 64%
13,C1CCC(C(CC2CCCCN2)C2CCCCC2)CC1 (stereo not drawn),inconclusive: 56.1%
14,C[C@@H]1CN([C@@H](C)CO)C(=O)c2cccc(NC(=O)c3cnccn3)c2O[C@@H]1CN(C)Cc1ccc(C(=O)Nc2ccccc2N)cc1,inconclusive: 51.9%
15,C[C@@H]1CN([C@@H](C)CO)C(=O)Cc2cc(NC(=O)CCCN(C)C)ccc2O[C@H]1CN(C)C(=O)Nc1ccccc1,inconclusive: 50.4%
16,Cc1nnnn1/C(=C\c1ccccc1)C(=O)OCC(=O)NC1CCCCC1,inactive: 9.25%
17,COC(=O)Cc1c(O)ccn(CCc2ccccc2)c1=O,inactive: -11.8%
18,[N-]=[N+]=NC1C[C@H](n2ccc(=O)[nH]c2=O)O[C@@H]1CO (stereo partly drawn),inactive: 3.56%
19,CCCCOc1ccc(-c2cc(C(=O)NNC(=S)NCC)c3ccccc3n2)cc1,inconclusive: 50.6%
20,C[C@@H]1CN([C@H](C)CO)C(=O)c2cccc(NC(=O)c3ccc(-c4nccs4)cc3)c2O[C@H]1CN(C)Cc1ccc(C(=O)Nc2ccccc2N)cc1,inconclusive: 50.1%
21,CSc1ncnc2c1ncn2CCCN[C@H](C)c1cccc2ccccc12,inactive: 5.25%
22,CCn1c(C)cc(C(=O)COC(=O)c2cccnc2SC)c1C,inactive: -52.6%
23,COc1ccc(C(=O)/C=C/C(=O)N(CC(=O)NC2CCCCC2)Cc2ccccc2OC)c(O)c1,inconclusive: 54.5%
24,COc1ccc2cc(CNCCOCCOCCNCc3ccc4cc(OC)ccc4c3)ccc2c1,active: 55.6%

row,SMILES,inhibition
1,COC(=O)[C@H]1[C@H](CO)[C@H]2Cn3c(ccc(C4=CCCCC4)c3=O)[C@H]2N1Cc1cccnc1,inactive: 4.15%
2,O=C(COc1ccc(S(=O)(=O)N2CCOCC2)cc1)Nc1ccc(Cl)c(C(F)(F)F)c1,inconclusive: 50.2%
3,CC[n+]1c(/C=C(\C)SC)sc2ccccc21,inactive: 0.58%
4,C[C@H](CO)N1C[C@H](C)[C@H](CN(C)Cc2ccc3c(c2)OCO3)Oc2ccc(NC(=O)CCCCCC(=O)Nc3ccccc3N)cc2CC1=O,inconclusive: 52.8%
5,CC(=O)Oc1ccccc1/C=C/c1ccc2ccccc2[n+]1C,inactive: -93.3%
6,Cc1ccc(-c2ccc3c(c2)O[C@@H](CN(C)C(=O)Nc2ccc(F)cc2)[C@H](C)CN([C@@H](C)CO)S3(=O)=O)cc1,active: 54.1%
7,O=C1NC(Cc2ccc(O)cc2)c2nc3cc(F)ccc3c(=O)n2-c2cc3ccccc3cc21 (stereo not drawn),inconclusive: 51.6%
8,O=C(O)c1ccc(N/N=C/c2cc(Br)cs2)cc1,active: 65.2%
9,CCS(=O)(=O)N1[C@H](CO)[C@@H](c2ccc(C#Cc3ccccc3F)cc2)[C@@H]1C#N,inconclusive: 51.1%
10,Cc1cc(NC2CCCC2)n2ncc(-c3ccccc3)c2n1,active: 62.2%
11,C=CCN1CCN(C(=O)CCCc2ccccc2)CC1,inconclusive: 52.4%
12,CC(C)c1onc(C(=O)N2CCN(C(c3ccccc3)c3ccccc3)CC2)c1[N+](=O)[O-],active: 64.3%
13,CCOc1ccccc1NC(=O)c1nc(S(=O)(=O)Cc2ccccc2)ncc1Cl,inconclusive: 54.7%
14,CCN(CC)c1ccc(NC(=O)CCCCC(=O)Nc2ccc(N(CC)CC)cc2)cc1,inconclusive: 50.3%
15,COc1ccc(Nc2nc(N)c(C(=O)c3ccc(F)cc3)s2)cc1,inactive: 13.3%
16,CC(CC(=O)Nc1ccc2c(c1)c(=O)n(C)n2-c1ccc2ccccc2c1)C(F)(F)F (stereo not drawn),inconclusive: 50.1%
17,COc1ccc(-c2cc3nc4n(c(=O)c3s2)CCC4)cc1,inconclusive: 55.3%
18,C[C@@H]1CN([C@@H](C)CO)C(=O)Cc2cc(NC(=O)Cc3ccccc3)ccc2O[C@H]1CN(C)Cc1ccncc1,inactive: -4.71%
19,C[C@H]1CCCCO[C@H](CN(C)Cc2ccccc2)[C@@H](C)CN([C@@H](C)CO)C(=O)c2cc(NC(=O)Nc3ccc4c(c3)OCO4)ccc2O1,inconclusive: 53.1%
20,CC(C)CC#Cc1ccc2c(c1)O[C@H](CN(C)Cc1ccncc1)[C@@H](C)CN([C@@H](C)CO)S2(=O)=O,inactive: 36.4%
21,CC(=O)NC1=NN(C(C)=O)C(C)(c2ccccc2)S1 (stereo not drawn),inconclusive: 50.3%
22,COc1ccc(CN(C)C[C@H]2OCCCC[C@H](C)Oc3ccc(NC(=O)Nc4ccc(C(F)(F)F)cc4)cc3C(=O)N([C@H](C)CO)C[C@H]2C)cc1,inconclusive: 54.2%
23,C[C@@H]1CCCCO[C@@H](CN(C)Cc2ccc3c(c2)OCO3)[C@@H](C)CN([C@@H](C)CO)C(=O)c2cc(NC(=O)CCC(F)(F)F)ccc2O1,inactive: -9.89%
24,COc1ccc(NC(=O)Nc2ccc3c(c2)C(=O)N([C@@H](C)CO)C[C@H](C)[C@@H](CN(C)Cc2ccccc2)OCCCC[C@H](C)O3)cc1,inconclusive: 52%
